Hit rate of the full screen: of about 310,000 compounds, about 2,200 (0.71%) showed an effect of 50% or more. The effect is printed as a negative number. Some of the results follow.

From article PMC4336329 (PLoS ONE, 2015) come the findings set out here.

In the test the target is human ether-à-go-go-related gene (hERG) potassium channel (human, UniProt Q12809). The test can be described thus: primary screen, population patch clamp on CHO cells stably expressing hERG.
Chain of human ether-à-go-go-related gene (hERG) potassium channel (Q12809 whole entry, looked up): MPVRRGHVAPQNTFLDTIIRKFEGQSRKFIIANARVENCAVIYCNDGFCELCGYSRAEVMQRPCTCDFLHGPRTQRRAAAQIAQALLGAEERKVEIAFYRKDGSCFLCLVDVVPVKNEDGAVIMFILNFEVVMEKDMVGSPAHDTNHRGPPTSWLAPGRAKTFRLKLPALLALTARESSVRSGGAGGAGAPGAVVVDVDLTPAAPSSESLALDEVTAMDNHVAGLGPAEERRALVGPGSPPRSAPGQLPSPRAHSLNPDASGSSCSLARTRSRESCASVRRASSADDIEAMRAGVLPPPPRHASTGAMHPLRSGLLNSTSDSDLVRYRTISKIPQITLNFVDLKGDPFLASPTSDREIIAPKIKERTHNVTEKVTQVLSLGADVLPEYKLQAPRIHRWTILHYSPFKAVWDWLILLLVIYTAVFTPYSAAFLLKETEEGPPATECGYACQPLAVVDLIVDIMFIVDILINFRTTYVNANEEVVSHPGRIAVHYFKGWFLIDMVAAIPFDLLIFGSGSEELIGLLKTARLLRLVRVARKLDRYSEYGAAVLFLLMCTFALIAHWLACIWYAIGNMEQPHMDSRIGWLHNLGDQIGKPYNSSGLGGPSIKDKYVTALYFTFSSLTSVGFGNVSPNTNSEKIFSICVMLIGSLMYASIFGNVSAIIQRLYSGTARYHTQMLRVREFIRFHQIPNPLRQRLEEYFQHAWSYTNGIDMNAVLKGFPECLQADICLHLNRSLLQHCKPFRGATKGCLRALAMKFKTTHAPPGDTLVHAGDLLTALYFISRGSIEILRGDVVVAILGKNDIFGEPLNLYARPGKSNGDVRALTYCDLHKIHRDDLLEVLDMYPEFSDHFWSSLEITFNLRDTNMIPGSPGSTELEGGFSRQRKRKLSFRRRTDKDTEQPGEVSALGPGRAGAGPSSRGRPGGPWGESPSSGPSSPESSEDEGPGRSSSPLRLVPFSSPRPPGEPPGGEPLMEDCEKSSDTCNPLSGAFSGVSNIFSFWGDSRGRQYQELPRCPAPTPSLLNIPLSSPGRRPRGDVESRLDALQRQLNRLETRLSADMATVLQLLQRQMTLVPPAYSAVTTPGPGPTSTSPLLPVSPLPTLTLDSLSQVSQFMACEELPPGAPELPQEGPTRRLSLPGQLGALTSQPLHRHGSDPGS
For the compound `COc1ccc(NC(=O)C2CCN(c3ncnc4c3nc3n4CCCCC3)CC2)c(OC)c1`, the “hERG current change (%, negative = inhibition) at 1uM” value is 1.93%.

`CCN(CC)S(=O)(=O)c1ccc(NC(=O)CSc2nnc(-c3ccc(F)cc3)o2)cc1`: the “hERG current change (%, negative = inhibition) at 1uM” value worked out at 11.9%. In the case of `O=[N+]([O-])c1ccccc1CNCCCCO` it was 5.46%; in that of `CN(C)S(=O)(=O)c1ccc(Cl)c(NC(=O)CN2CCc3ccccc3C2)c1`, 15.2%. On to `Cc1c(N)cc(N)cc1C(=O)O`, for which the “hERG current change (%, negative = inhibition) at 1uM” value turned out to be 11.3%.

With `COc1ccc2[nH]c(C(=O)NCc3ccccc3)c(C)c2c1.Cl`, the “hERG current change (%, negative = inhibition) at 1uM” value is listed as 10.3%.

`Cc1cc2oc(C(=O)N(Cc3ccccc3)C3CCS(=O)(=O)C3)cc(=O)c2cc1Cl` (stereo not shown): the “hERG current change (%, negative = inhibition) at 1uM” value is on record as 11.4%. On to `CCOc1ccccc1NC(=O)Nc1cc(C(=O)O)ccc1C`, for which the “hERG current change (%, negative = inhibition) at 1uM” value was 12%. As for `COC(=O)CCCCC1SCC(NC(=O)OC)C1NC(=O)OC` (stereo not shown), the figure is 10.9%; as for `COc1ccc(Nc2ccc(N3C(=O)CC(C)C3=O)cc2[N+](=O)[O-])cc1OC` (stereo not shown), 7.09%. In the case of `O=C(NC(=S)NC1CC1)c1cccnc1`, the “hERG current change (%, negative = inhibition) at 1uM” value is listed as 8.98%. Take `Cc1cc(C)nc(Nc2n[nH]c(C)n2)n1`: the “hERG current change (%, negative = inhibition) at 1uM” value stood at 10.2%. As for `CC(=Nc1ccccc1)C1=C(O)CC(C)(C)CC1=O`, the “hERG current change (%, negative = inhibition) at 1uM” value is 11.8%. As for `CC1CCN(C(=O)c2ccc(S(=O)(=O)Cc3cccc(F)c3)c([N+](=O)[O-])c2)CC1`, the figure is 11.7%. As for `Cc1cccc(C)c1Nc1c(-c2ccsc2)nc2ncccn12`, the figure is 1%; as for `Cc1ccc(S(=O)(=O)N(C(=O)c2ccco2)c2cc3sc(=O)oc3c3ccccc23)cc1`, 5.71%. In the case of `O=C(NCc1ccncc1)c1ccc(OCc2ccccc2)cc1` it was 7.47%; in that of `Cc1cccc(C(C)C)c1NC(=O)c1ccc(CN(c2ccccc2)S(=O)(=O)c2ccccc2)cc1`, 7.45%; in that of `O=C(CSc1nncn1-c1ccccc1)NC1CCCC1`, 1.06%. With `COc1ccccc1CCNC(=O)c1ccc(NC(=O)CC2SC(N3CCCC3)=NC2=O)cc1` (stereo not shown), the “hERG current change (%, negative = inhibition) at 1uM” value was found to be 16%.

For the compound `COc1ccc(C2C(C(C)=O)=C(O)C(=O)N2c2cccnc2)c(OC)c1` (stereo not shown), the “hERG current change (%, negative = inhibition) at 1uM” value was found to be 5.88%. In the case of `O=C(Cc1ccccc1)Nc1c(C(=O)N2CCCCCC2)cnn1-c1ccccc1`, the “hERG current change (%, negative = inhibition) at 1uM” value is reported as 16.4%. In the case of `C=CCNc1cccc(Br)c1` it was 12.5%.

In the case of `CNS(=O)(=O)c1ccc(CCC(=O)N2CCN(c3ccccc3OC)CC2)cc1`, the “hERG current change (%, negative = inhibition) at 1uM” value stood at 11.9%. In the case of `Cc1noc(C)c1S(=O)(=O)Nc1ccc(C(=O)N2CCN(c3ccc(F)cc3)CC2)cc1` it was 2.44%.
